Reference: the supplement of paper PMC3334620
In all, about 33,000 sequences were measured (“E-score (-0.5 to 0.5)”: median about -0.013, highest 2% from about 0.3 on). Some of the results follow.

The sequences below were run against T1, Msn1 (UniProt P22148) (assay: PBM E-score (8-mer binding enrichment) (E-score (-0.5 to 0.5)); higher = stronger / more preferred TF binding; most listed sequences are background and not binding sites). Conditions: protein concentration: 200 nM; construct: GST-full length.
T1 sequence: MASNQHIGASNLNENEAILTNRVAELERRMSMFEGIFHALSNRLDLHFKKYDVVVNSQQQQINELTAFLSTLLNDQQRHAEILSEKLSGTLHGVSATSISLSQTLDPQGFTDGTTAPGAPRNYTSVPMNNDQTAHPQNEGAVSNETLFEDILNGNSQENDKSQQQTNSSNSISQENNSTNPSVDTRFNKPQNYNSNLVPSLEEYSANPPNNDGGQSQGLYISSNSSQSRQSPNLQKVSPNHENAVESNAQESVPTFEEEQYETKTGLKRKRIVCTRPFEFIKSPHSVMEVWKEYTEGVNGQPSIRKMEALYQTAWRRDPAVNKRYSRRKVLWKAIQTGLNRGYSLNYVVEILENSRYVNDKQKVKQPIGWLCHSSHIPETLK
Method: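 Universal 'all 10-mer' protein binding microarrays (Agilent AMADID 015681) probed with GST-tagged S. cerevisiae TFs (full-length or DBD) made by in vitro transcription/translation (PURExpress), about 100-200 nM. Bound TF was detected with fluorescent anti-GST. Each ungapped 8-mer (which stands for itself and its reverse complement) is scored by the PBM enrichment score (E-score), a modified Wilcoxon-Mann-Whitney statistic from -0.5 to +0.5, computed with the Universal PBM Analysis Suite. Scale: above 0.35 generally sequence-specific binding.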

| Sequence | PBM E-score |
| --- | --- |
| CCTATTAG | 0.0445 |
| AGGGATTC | -0.045 |
| CAGCATCG | -0.0468 |
| CGCTGGCA | 0.00356 |
| CCATATGC | 0.124 |
| GCAGGACC | -0.0863 |
| GTTTCCGA | 0.0235 |
| CCACTATA | 0.133 |
| CCCATTCG | -0.194 |
| GCCGGAGC | -0.0769 |
| AAGCCCTG | -0.214 |
| AATTTTGC | 0.0375 |
| AATATGCG | 0.0982 |
| GAAATGAC | 0.216 |
| AGAATGCC | 0.0124 |
| AGTGAACA | 0.0807 |
| TGGTCGAA | -0.224 |
| TAGAAATA | 0.0788 |
| GATTTGTA | 0.31 |
| GTTGTTGA | 0.0826 |
| CGCTTTAG | -0.0315 |
| GATCTATA | 0.102 |

| Sequence | PBM E-score |
| --- | --- |
| CTGGCCAC | -0.0526 |
| ACCTGTCC | 0.297 |
| AGTTAGCC | -0.0848 |
| CAAACCCG | 0.169 |
| GGAACTGA | -0.00145 |
| ACGGATAG | -0.0859 |
| ATGTAAGG | 0.0666 |
| CGCTTCTC | -0.093 |
| GACTAATA | 0.283 |
| CCAGAGCC | -0.199 |
| CAGCGTCG | -0.0618 |
| ACGGCCGA | 0.179 |
| CATGTTTA | 0.027 |
| CATTCACA | -0.00532 |
| ACTTGCTC | -0.118 |
| CTCTTCTC | -0.328 |
| CCCAGGCG | -0.144 |
| ACCATAAT | 0.0924 |
| ATCTACTG | 0.0386 |
| GCACGTTA | -0.123 |
| ACCGACGT | 0.097 |
| ACCTGTTC | -0.0766 |

| Sequence | PBM E-score |
| --- | --- |
| AAAGACAA | 0.418 |
| AACGGTTC | 0.0316 |
| CACAGTGA | 0.0942 |
| CATGTGGG | -0.0995 |
| GTCAGTTA | 0.0735 |
| ACACCATC | -0.0519 |
| AGCACAAT | 0.0538 |
| GTAATAAA | 0.202 |
| CCGGCAAA | 0.148 |
| ACCTAGTG | -0.00377 |
| CAACTTCC | 0.143 |
| AGAGACTA | -0.0629 |
| CACAGCTC | -0.0937 |
| AAGATTGG | 0.0874 |
| GGCACGAC | -0.0715 |
| AAATTCTG | 0.168 |
| CACAGATC | 0.0954 |
| AATGGGTC | -0.277 |
| CGTCGTAA | -0.0032 |
| CCGATCCC | -0.203 |
| AAATGCAG | 0.181 |
| GCGCCATA | -0.0747 |

| Sequence | PBM E-score |
| --- | --- |
| AGTTTGCA | -0.0958 |
| TCTTGCCA | -0.0456 |
| TCAGGGAA | -0.0838 |
| GACCCGCC | -0.0937 |
| GCCAATAC | -0.152 |
| ATAAGTGA | -0.0082 |
| AATCAGGA | -0.0564 |
| AGCTGCCC | 0.0115 |
| AGCGTAGA | -0.0952 |
| ACAACGGA | 0.304 |
| ATCACATG | -0.0789 |
| AGATGGCT | -0.0689 |
| AAGCTCAC | -0.119 |
| CCCCTCGG | -0.0601 |
| ATTCATTG | 0.0603 |
| GCTTGCGA | 0.158 |
| ACCACGAC | -0.142 |
| CTGATCCC | -0.318 |
| CTACATAG | 0.0928 |
| ACGGGACC | -0.247 |
